Common to all, as to assay: Cytotoxicity test: cell count, cell proliferation
One test has as its system NP2/CD4/X4 cell. The settings on record: Homo sapiens, 48 h, read-out: concentration to suppress cell proliferation by 50%.
The test system of another test is HeLa/CD4 cell. It is filed as cell-based. To be noted: Homo sapiens, 48 h, 2 days culture, read-out: concentration to suppress cell proliferation by 50%.
The next test relates to TE671/CD4 cell. It counts as cell-based. To be noted: Homo sapiens, TE-671, 48 h, 2 days culture, read-out: concentration to suppress cell proliferation by 50%.

As for `CC(C)=CCC/C(C)=C/CC/C(C)=C/CC/C(C)=C/C(=O)O` [GGA, geranylgeranoic acid], the values for the IC50 in the test on NP2/CD4/X4 cell, in the test on HeLa/CD4 cell and with TE671/CD4 cell were 20 µM, 20 µM and 25 µM, respectively.

For the origin of these results see patent publication US8415399B2, “Retrovirus-infection inhibitor” (Nagasaki University, priority 2006, dated 2013).
